# According to the supplement of paper PMC11417369:
# ± gives the standard deviation of the averaged measurements. Some of the results follow.
# Tested on: PfAP2-I AP2 domain 3 (GST-tagged)
# Assay: gcPBM binding intensity (ln(normalized median fluorescence intensity)); higher = stronger DNA binding
# Method in brief: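 In this array assay, P. falciparum DNA-binding domains with a GST tag, expressed in E. coli, were applied for 1 h to primer-extended double-stranded 36-bp intergenic genomic probes and negative controls on an Agilent 4 × 180k array. Bound protein was visualised with Alexa488 anti-GST antibody at 488 nm. Binding intensity is the highest Masliner-normalised natural-log median intensity across replicate spots of either probe orientation.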
row,Sequence,gcPBM binding intensity (ln)
1,AAGAAAAAATATAATAATAATAAAATATATATAATA [TGCATGCA_negctrl_site475],7.29 ± 0.69
2,TTTGTTTTTCATAGTGCACACATAACCAAAAATAGT [CACACA_site9030],11.3 ± 0.46
3,TATTGTTTTGATTGATGTACATGTTTAAAATATATA [XGTACX_site8430],7.99 ± 0.071
4,TAATCTATTTATATGTGTACCTATTTAGAAATGACA [XGTACX_site5709],7.79 ± 0.59
5,AAAGTAAATTTAAGCACACACAACGAACTTTTATAC [CACACA_site7008],8.63 ± 0.23
6,TGTTGTAAATATGTTTGTACATAAATATATTATTTA [XGTACX_site5442],7.71 ± 0.33
7,TATATTTACATTGTAACACACATGAAATATATATAT [CACACA_site61],8.74 ± 0.21
8,TTTTTTATTGTGATACGTATATTATTTTTTGATAAA [CACACA_negctrl_site1],7.92 ± 0.73
9,TTAATTAATAGACACACACACATATAAATATAGATT [CACACA_site7143],7.82 ± 0.44
10,AAAAAAAAATAATATTGTACACACATAAATTCTTTG [XGTACX_site4315],7.51 ± 0.47
11,GTTTTATTAAAAATGTGTACTTAATTATGAAAAAAA [XGTACX_site4689],7.95 ± 0.28
12,GTGTATTTTCTGCGCACACACATGCAAAAAGAAATA [CACACA_site1148],9.355 ± 0.021
13,AAGAAAAAATAAACATGTACATAAATATATATATAT [XGTACX_site304],9.4 ± 0.46
14,ATTTAATTTATAAAAACACACACAGGTAAAAAGGTG [CACACA_site8306],8.51 ± 0.5
15,ATTTTTTTTTTTATGTGTACATATATTTTTTTAATT [XGTACX_site7921],8 ± 0.38
16,CATACTGTGATAGCACCACACACGCAAAAGAGGGTA [CACACA_site8285],9.32 ± 0.17
17,TAAGGCCCTTTTCATCGTACAGTAAAATATAAATAA [XGTACX_site1278],7.84 ± 0.2
18,GAAAATTCTTAAGGCACACACATATATAATATATAC [CACACA_site569],10 ± 0.53
19,AATTTAACCCATTTTATAATTATTACCACTATATAT [TGCATGCA_negctrl_site452],8.08 ± 0.73
20,CAAATACATGTGTAAAGTACATATTAATAAGTCTTT [XGTACX_site6342],7.57 ± 0.53
21,TACTGTGATAGCACCACACACGCAAAAGTGAGTATA [CACACA_site1109],9.45 ± 0.16
22,TATATTTAGTAAAAAGGTACCATTCTTATTTATATT [CACACA_negctrl_site1165],7.42 ± 0.46

row,Sequence,gcPBM binding intensity (ln)
1,TATATTAATAGACACACACACATATTTATATTTATA [CACACA_site6859],7.71 ± 0.41
2,TTTCAGCCAAACGATAAACTACGACACTTGAACGAA [CACACA_negctrl_site1747],7.5 ± 0.52
3,AATAATAGAAAAAGGTGTACTTATAAACATATACAC [XGTACX_site6921],8.18 ± 0.23
4,ATATATTTTTTTTCTTCACACACATGAATTATATAT [CACACA_site9053],8.2 ± 0.68
5,ATATATATATATATATGTACATATTATATATGAACG [XGTACX_site1585],9.59 ± 0.57
6,GTAATTATTATTAATAGTACACACTATGGCATTTCA [XGTACX_site5192],7.8 ± 0.47
7,GAAATTTTTAAATACAGTACACACATGGGTTTAAAT [XGTACX_site6124],7.9 ± 0.72
8,ATACTTCAATCTATTTGTACATATTTTTTAAAACCA [XGTACX_site2328],8.17 ± 0.62
9,ATAAAGCCATACAATACACACATTTGACATGTCCGT [CACACA_site7523],8.07 ± 0.73
10,AATAATAAAAAATATACACACATATATAAATAAATA [CACACA_site6164],7.47 ± 0.58
11,TATATATATATATATTGTACTAATTGTGCAAATGAG [XGTACX_site682],9.76 ± 0.67
12,TAAGAAAAAAAATAATGTACATATGTATTTGAGAAA [XGTACX_site3569],7.71 ± 0.5
13,AAAAAAAAAAAAAAAAAAAAAAAAAAATATATATAT [CACACA_negctrl_site271],9.82 ± 0.18
14,TGCTACTTATAAATAGAACACACATAAGTGTATTTG [CACACA_site9253],7.59 ± 0.38
15,ATATATACATATGGGTGTACATATGCACATATATAT [XGTACX_site8437],8.76 ± 0.63
16,TTTAAAATAAATATTACACACAAAATATTAAAAAGC [CACACA_site2129],7.88 ± 0.71
17,ACAAAAAAAAACGTGGTGCATTAATAATATTGTATA [GTGCAC_site9469],11.7 ± 0.3
18,TAGTTAATATGAAAAAGTACACGTTTCAGTGAAAGT [XGTACX_site7402],8.18 ± 0.81
19,AAAAAAAAAAAAACTTGTACATGTGATATTATCTAT [XGTACX_site6169],7.71 ± 0.49
20,ATTTAATACATACATTCACACACACTAATTGTATAT [CACACA_site9361],8.05 ± 0.64
21,TTAAATGTTCTATATACATGCAATGATATGTTTCTG [TGCATGCA_site317],7.58 ± 0.48
22,TCAAAGTAGGCTTATATGCACACTTTGAAATATTAT [CACACA_site1920],9.165 ± 0.035

row,Sequence,gcPBM binding intensity (ln)
1,ATAAGAAGGAACATAAATATATCATAAAAAAAAAAA [GTGCAC_negctrl_site169],7.84 ± 0.57
2,TAAAATTTTTTATTCACACAAATATAGTTATATATA [CACACA_site5348],7.44 ± 0.45
3,AAATTAATATAAATATGTACATAAATAATAAAATAT [XGTACX_site6131],7.83 ± 0.42
4,GTTTTCCTTCCCTTTCCCCCTCAAAAAAAGGGAACA [TGCATGCA_negctrl_site436],9.61 ± 0.071
5,AAGGAATAAAGAAGTTGTACATAATTTGTATCATCC [XGTACX_site3891],7.7 ± 0.54
6,ATTTTTCAAACTTTAGTGCAATGAAAGAAAGAAAAA,10.2 ± 0.32
7,GGAGGTTGTTATAAAAGTACAAAAAGTTGCAATTTT [XGTACX_site7351],8.19 ± 0.54
8,TCATTATATACAATATGTACATATATGTAATAAACA [XGTACX_site4611],7.86 ± 0.37
9,AAAGAATTCATTATTTGTACTTAAATAAATAAATAA [XGTACX_site5932],7.68 ± 0.77
10,AGAAAGAAAGAATACACACACACATATATATATATC [CACACA_site3744],7.9 ± 0.44
11,AGCACACGCAGACACACACACACACGCACACGCACA [CACACA_site6306],8.15 ± 0.56
12,AAAGGATATGCTTCATATATATATTGTTATATATGT [CACACA_negctrl_site1672],7.57 ± 0.5
13,ATAACACAAAAAGGGGGTACAATAAAAAAAAAAAAA [XGTACX_site1652],8.72 ± 0.21
14,TATTTATATAGGTATACACACATACAAATATGTAAA [CACACA_site7705],7.46 ± 0.42
15,AATACCTATAATACAACACACAAGTAATATAAACCT [CACACA_site7661],7.92 ± 0.69
16,TACACCCACATATATATACACACTTTTATTTAAATA [CACACA_site1596],8.15 ± 0.28
17,AAAAAAAATAATGTTGCACACAACAACAAACAAAAA [CACACA_site3290],8.835 ± 0.049
18,AATATATATATATGTGCACACATATATAATATGTAT [CACACA_site716],9.2 ± 0.58
19,CAATATGGAAAATAAAGTACGCACACAAAAATTCTC [XGTACX_site4793],8.37 ± 0.49
20,TAGATAAAATGAACATGTACTCATCTTAATATATAT [XGTACX_site34],7.63 ± 0.42
21,TTATTCTAAAAATATACACACAACAACAAACAAACA [CACACA_site1543],8.63 ± 0.17
22,ATGTGTTTCTTCAATTGTACTAAAAGGTATATATTG [XGTACX_site4608],7.93 ± 0.59

row,Sequence,gcPBM binding intensity (ln)
1,ATACTATAATATAAAACACACATATGTACCTTCTAA [CACACA_site7323],7.8 ± 0.63
2,ATTATTTAAATTTAACGTACGGAATAAGACATAGAT [XGTACX_site8622],8.39 ± 0.66
3,TAGTAACTTGTATTCACACAAATTATATTATATTAC [CACACA_site5041],7.79 ± 0.22
4,TATATAATATATAAATGTACTTTTGTCTTATATGAA [XGTACX_site7211],7.57 ± 0.26
5,TTTTTTTTTTTTTTTTTTTTACAGAAAAATATTAAA [CACACA_negctrl_site128],8.09 ± 0.79
6,AATCATTAAAGCATAATGTTTATGATCAATATGAAA [CACACA_negctrl_site887],7.41 ± 0.52
7,TTCAGGTAATAACATTGTACATGTGTATCATAATTA [XGTACX_site6740],7.7 ± 0.56
8,GAAATATTACAAAGTACATGCAACGAAAATTTCAGT [TGCATGCA_site608],7.89 ± 0.76
9,GATAATACATAAATTTATAAGTGGAAGAATAAATAA [CACACA_negctrl_site698],8.07 ± 0.6
10,ACAAACAAATAAATATGTACGAATAAATAAAATTTT [XGTACX_site4664],7.61 ± 0.6
11,TTTTTTTTCAAAAATACAAAAAAAAAAGAAAAAAAC [CACACA_negctrl_site625],8.06 ± 0.4
12,TGCTCTAATTTATATACACACAAATATGTACACATA [CACACA_site7845],8.07 ± 0.38
13,TAATTTTTTTAAGAGAGTACATGACTCAACAGTTTA [XGTACX_site3103],7.49 ± 0.4
14,TTTCATAAATAATAAAATAAAATATGAAGCAAAAGG [CACACA_negctrl_site1767],7.88 ± 0.68
15,TTATATCCAACTTGAAAAAAGGTATATGTTTATATA [CACACA_negctrl_site1746],7.47 ± 0.47
16,TTTTTTTTTTTTTGGAGTACATGTTTATAACATAAT [XGTACX_site1799],8.17 ± 0.67
17,TTATTATCTCTTGTCATTATTATATACTAAGAAGTA [CACACA_negctrl_site410],7.58 ± 0.71
18,AATATGAAATATATTACACACATTTATATGTTGAAA [CACACA_site1427],7.59 ± 0.39
19,AATACACCCAGACACACACACAAAAAAAAAAAAAAA [CACACA_site513],8 ± 0.58
20,ATATATATATTAAATACACACATTTTTGATTAGGTT [CACACA_site3119],8.99 ± 0.057
21,TTTGAATCCTTATATACACACATTATGTAATATTAT [CACACA_site561],7.75 ± 0.65
22,AAAAGAGAAATGGGCACACACACACCGATTATATAT [CACACA_site4942],7.93 ± 0.66
